Data: publication PMC4336329 (PLoS ONE, 2015)
Screen size: about 310,000 compounds; about 14,000 (4.5%) showed an effect of 50% or more. Effects have a minus sign here. The list shows a part of the results.

The compounds below were run against human ether-à-go-go-related gene (hERG) potassium channel (human, UniProt Q12809) (assay: primary screen, population patch clamp on CHO cells stably expressing hERG).
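Also: peak tail current of the secondary pulse compared with the same well before compound.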

Chain of human ether-à-go-go-related gene (hERG) potassium channel (Q12809 whole entry, looked up): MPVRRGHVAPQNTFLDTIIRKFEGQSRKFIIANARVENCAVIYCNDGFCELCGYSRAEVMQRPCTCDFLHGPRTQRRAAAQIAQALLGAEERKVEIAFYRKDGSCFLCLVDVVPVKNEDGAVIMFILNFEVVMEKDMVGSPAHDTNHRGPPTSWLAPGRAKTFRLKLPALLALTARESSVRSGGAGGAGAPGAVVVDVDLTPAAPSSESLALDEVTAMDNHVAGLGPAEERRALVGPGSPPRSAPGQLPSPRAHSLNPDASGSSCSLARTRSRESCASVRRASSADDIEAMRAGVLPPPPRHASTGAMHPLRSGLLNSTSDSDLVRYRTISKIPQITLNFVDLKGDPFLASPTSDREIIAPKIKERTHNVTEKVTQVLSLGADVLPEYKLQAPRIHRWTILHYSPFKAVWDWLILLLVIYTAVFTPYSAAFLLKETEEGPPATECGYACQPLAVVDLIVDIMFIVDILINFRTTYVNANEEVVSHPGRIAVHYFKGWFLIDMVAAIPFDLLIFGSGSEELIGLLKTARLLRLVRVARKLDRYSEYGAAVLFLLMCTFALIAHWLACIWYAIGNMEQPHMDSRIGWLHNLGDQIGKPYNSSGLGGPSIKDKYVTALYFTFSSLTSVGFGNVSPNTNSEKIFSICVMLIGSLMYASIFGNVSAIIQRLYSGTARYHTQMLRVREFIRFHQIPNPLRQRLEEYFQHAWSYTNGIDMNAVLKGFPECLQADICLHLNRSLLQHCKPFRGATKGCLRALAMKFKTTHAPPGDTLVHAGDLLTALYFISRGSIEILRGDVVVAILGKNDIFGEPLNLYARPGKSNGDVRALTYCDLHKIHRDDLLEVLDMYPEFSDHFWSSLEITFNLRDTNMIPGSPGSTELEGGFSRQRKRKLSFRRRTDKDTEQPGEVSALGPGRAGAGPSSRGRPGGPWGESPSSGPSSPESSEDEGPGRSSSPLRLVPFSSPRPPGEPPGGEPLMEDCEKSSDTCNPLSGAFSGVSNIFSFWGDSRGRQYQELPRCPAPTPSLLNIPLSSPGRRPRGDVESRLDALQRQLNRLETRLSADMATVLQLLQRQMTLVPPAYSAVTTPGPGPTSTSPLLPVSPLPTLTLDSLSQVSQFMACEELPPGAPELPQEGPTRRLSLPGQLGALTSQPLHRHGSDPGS

SMILES	hERG current change (%, negative = inhibition) at 10uM [%]
Cc1ccc(NS(=O)(=O)c2cccc(C(=O)O)c2)cc1S(=O)(=O)N1CCCCC1	3.3
COC(=O)N1C(=O)[C@@](CC(C)C)(c2ccccc2)N1C(=O)OC	-4.25
CCCOC(=O)c1cccc(NC(=O)COc2ccc([N+](=O)[O-])cc2)c1	-26.9
CC(C)N(Cc1cn(C)nc1-c1cccc(Cl)c1)Cc1nccn1C	-37.2
O=[n+]1cc(-c2cc3ccccc3o2)n([O-])c2c1CCCC2	-10.6
Cc1cc(NC(=O)CSc2nnc(-c3ccccc3C)n2C)no1	26
O=C1CSC(c2cccc([N+](=O)[O-])c2)N1Cc1ccccc1 (centres unmarked)	5.65
CC(C)CN(CC(C)C)S(=O)(=O)N1CCC(C(=O)NCc2ccco2)CC1	19.5
O=C(NCCCn1ccnc1)c1nc(Cn2cc(Br)cn2)no1	6.06
O=C(c1ccc(Cl)cc1)[C@@H]1[C@@H]2C(=O)N(c3ccccc3)C(=O)[C@@H]2C2c3ccccc3C=NN21 (some centres unmarked)	-4.15
O=C(c1ccco1)N1CCC(c2nc3c(nnn3Cc3ccccc3Cl)c(=O)[nH]2)CC1	-48.6
Nc1nc(CSC(=S)N2CCOCC2)nc(Nc2ccc(F)cc2)n1	7.31
CC(NC(=O)Cc1ccc(F)cc1)C(c1cccs1)N1CCN(C)CC1 (centres unmarked)	-15.2
O=C(CSc1ccc2ccccc2n1)NC1CC1	11.3
O=S(=O)(c1ccc(NC(=S)NCc2cccnc2)cc1)N1CCCCC1	-7.75
CSc1nnc(-c2ccccc2N=Cc2c(C)[nH]n(-c3ccc4ccccc4c3)c2=O)c(=O)[nH]1	-13.2
COCCC1CCCCN1C(=O)c1cccc(OC2CCN(C3CCCC3)CC2)c1 (centres unmarked)	17.6
Cl.O=C(CN1CCN(c2ccc(F)cc2)CC1)NCc1cccs1	-15.4
CCOc1ccc(OCC)c(NC(=O)C2CCCN(S(=O)(=O)c3cnc[nH]3)C2)c1 (centres unmarked)	6.54
O=C(O)c1cccnc1SCc1ccccc1	-1.22
CC(C)NS(=O)(=O)c1ccc(OCC(=O)N2CCN(c3ccccc3)CC2)cc1	-8.08
Cc1nc(NC(C)(C)CO)c([N+](=O)[O-])cc1[N+](=O)[O-]	-3.55

SMILES	hERG current change (%, negative = inhibition) at 10uM [%]
O=C1CN(S(=O)(=O)c2cc(C(=O)O)ccc2Cl)c2ccccc2N1	15.3
CNC(=O)O/N=C(\C)Cc1nnn(-c2cc(C)on2)n1	11.2
CCN(CC)c1cc2nc(C)n(Cc3ccccc3)c(=O)c2cc1NC(=O)C1CC1	-14.2
CC(=O)Nc1ccc(Sc2ccccc2C(=O)O)cc1	17.5
CN(Cc1ccc(C(F)(F)F)cc1)C(=O)c1ccc(Oc2ccccc2)cc1	13.1
COc1ccc(Nc2cc(Sc3ccc(OC)cc3)ncn2)cc1	-37.9
COc1ccc(NS(=O)(=O)c2ccc(F)cc2F)cn1	10.4
O=[N+]([O-])c1ccc(N2CCSCC2)cc1	-10.4
COC(=O)N/N=C(\C)c1ccc(OC(F)F)cc1OC(F)F	2.08
Cc1ccccc1-n1c(Cn2c(=O)sc3ccccc32)nnc1SCC(=O)N1CCOCC1	2.07
O=C(c1ccc(CS(=O)(=O)c2ccccc2)o1)N1CCN(c2ccccc2)CC1	-11.6
CC(C)(CNC(=O)c1ccc(NS(=O)(=O)c2ccc(Br)cc2)cc1)N1CCOCC1	-19.4
CC1(C)C(=O)OC(/C=C\c2cccc([N+](=O)[O-])c2)C(C)(C)C1=O (centres unmarked)	5.39
C/C=C/C(=O)Nc1cccc(C2=NOC3(C2)C[C@@H](C(N)=O)N(C(=O)/C(C)=C/C)C3)c1 (some centres unmarked)	9.42
Cc1ccc(C(=O)N[C@H](C(=O)OCc2cc(=O)n3c(n2)sc2ccccc23)C(C)C)cc1	-18.8
COc1ccc2ccccc2c1CNC(=O)CC1C(=O)NCCN1CC(C)(C)C (centres unmarked)	4.41
Brc1ccc(-c2nn3c(Cc4ccccc4)nnc3s2)o1	3.39
Cc1cc(C)nc(NC(=O)c2ccc(Cl)c([N+](=O)[O-])c2)n1	-0.62
C/C(=N\OCC(=O)NCC(F)(F)F)c1cc2ccccc2o1	-1.58
O=C(Nc1ccc(F)cc1)c1ccc(S(=O)(=O)NCc2cccnc2)cc1	-2.09
C[C@@H]1NC(=O)[C@@]2(C)[C@@H](c3ccccc3)[C@H]3COc4ccc(Cl)cc4[C@@H]3N2C1=O	15.4
CCn1cc(C(=O)N[C@H](C(=O)NC(C)(C)CO)C(C)C)c(=O)c2cc3c(cc21)OCO3	21.9

SMILES	hERG current change (%, negative = inhibition) at 10uM [%]
CN(C(=O)CN1C(=O)/C(=C/c2ccccc2Cl)SC1=S)C1CCS(=O)(=O)C1 (centres unmarked)	-4.31
CCc1sc(C(=O)NCCCN2CCCC2=O)cc1Br	5.8
Cc1ccc2oc(-c3cccc(NC(=O)c4ccc(Br)o4)c3)nc2c1	0.0188
COc1ccccc1NC(=S)N1CCCc2ccccc21	8.53
CC(C)(C)P(=O)(NCc1ccccc1)c1ccccc1 (centres unmarked)	25.2
O=C(COc1ccccc1)NC1C(=O)N2C(C(=O)O)=C(Cl)CSC12 (centres unmarked)	2.5
C=CCNc1cnn(-c2ccccc2)c(=O)c1Cl	23.5
CCOC(=O)c1sc2nc(C)[nH]c(=O)c2c1C	13.2
O=C(/C=C/c1ccccc1)Nc1sc2c(c1C(=O)O)CCC2	5.92
CCCN1CCC[C@H](c2cccc(O)c2)C1.Cl	0.216
CCC(C)NC(=O)c1ccc(Cl)c(S(=O)(=O)Nc2ccccc2N2CCOCC2)c1 (centres unmarked)	-6.74
OCCCNc1ncnc2oc(-c3ccccc3)c(-c3ccccc3)c12	-13.2
COc1ccccc1CN1CC(C(=O)NCCc2ccccc2Cl)CCC1=O (centres unmarked)	-9.19
CCN1CCCC1CNC(=O)Cn1ncc2c(=O)oc3ccc(C)cc3c21 (centres unmarked)	-2.33
COc1ccccc1/C=C1\SC(=O)N(CCC(=O)N(C)C2CCS(=O)(=O)C2)C1=O (centres unmarked)	-12.1
COc1ccc(CN2CC(=O)N(c3ccc(C)c(C)c3)C2=S)cc1OC	12.2
CCO[C@@H]1OC(C(=O)Nc2ccccc2)=C[C@H](c2ccc3c(c2)OCO3)[C@H]1CCCO	-39.2
Cc1noc2ncnc(SCc3ccc(C(F)(F)F)cc3)c12	-4.54
CN1CCc2c(n(CC(O)CN3CCN(CCO)CC3)c3ccccc23)C1=O.Cl (centres unmarked)	2.24
COc1ccc(NC(=O)NCc2cccn2C)c(OC)c1	7.83
O=C(NC(=S)Nc1ccc(NC(=O)c2cccs2)cc1)c1cc2ccccc2o1	6.24
CC1CN(C(=O)CSc2ncnc3sccc23)CC(C)O1 (centres unmarked)	5.07

SMILES	hERG current change (%, negative = inhibition) at 10uM [%]
COc1ccccc1CNCc1cc(OC)c(OC)cc1OC	-10.3
CC(=O)N1CCOc2ccc(S(=O)(=O)NCCc3ccc(S(N)(=O)=O)cc3)cc21	12.2
Cc1ccc(C2=NNC(c3cccc(F)c3)S2)cc1 (centres unmarked)	-5.04
CCn1nc(C)c(CNC(=O)c2cc(COc3ccc(C)nc3)on2)c1C	13.3
Cc1nn(C)cc1CNC(=O)/C=C/c1cnn(C)c1	6.62
CCn1cc(Cl)c(C(=O)NNC(=O)CCn2nc(C)c([N+](=O)[O-])c2C)n1	-2.89
O=C(Cc1ccc(-n2c(=O)[nH]c3ccsc3c2=O)cc1)NCc1cccnc1	18.9
CCOc1ccc(N2CC(C(=O)NC3CCSC3=O)CC2=O)cc1 (centres unmarked)	25.6
CCOc1ccc(/C=C/C(=O)c2ccc(-c3ccccc3)cc2)cc1	26.6
Oc1c(Br)cc(Br)cc1/C=N/NC(=S)N[C@H]1CC2C=CC1C2 (some centres unmarked)	18.9
COc1ccc(NC(=O)CN2CCC(n3c(C)nc4cc(F)ccc43)CC2)c(OC)c1	-4.64
O=C(COc1ccc2ccccc2c1)NNC(=O)[C@@H]1CCCC[C@@H]1C(=O)O	24
CSc1cccc(CNC(=O)C2CCC(=O)N(CC3CCCCC3)C2)c1 (centres unmarked)	-2.28
COc1ccc(CN(C(=O)CSc2nnc(-c3ccc(OC)c(OC)c3)o2)c2ccc(F)cc2)cc1	-7.44
CC(=O)N1c2ccc(S(=O)(=O)N3CCC(C(=O)Nc4cc(C)ccn4)CC3)cc2CC1C (centres unmarked)	13.8
Cc1cc2ccccc2n1CCNC(=O)COc1ccc2ccccc2c1	8.14
Cc1nn2c(NCCOCCO)c3c(nc2c1-c1ccccc1)CCCC3	-74.2
CC(Oc1ccccc1)C(=O)Nc1ccc(S(=O)(=O)NCC2CCCO2)cc1 (centres unmarked)	1.75
CCn1c(=O)cc(SCC(=O)N2CCC(C)CC2)c2ccccc21	-11.7
O=C(NC1CCCCC1)C(=S)NCc1ccccc1	-3.3
